Whole data set: some 33,000 sequences, median “E-score (-0.5 to 0.5)” near -0.054, cut for the highest 2% near 0.35. This is one part of the list.
target: T1, Stb5 (UniProt P38699); test: PBM E-score (8-mer binding enrichment) (E-score (-0.5 to 0.5)); higher = stronger / more preferred TF binding; most listed sequences are background and not binding sites; settings: protein concentration: 200 nM; construct: GST-full length
T1 sequence: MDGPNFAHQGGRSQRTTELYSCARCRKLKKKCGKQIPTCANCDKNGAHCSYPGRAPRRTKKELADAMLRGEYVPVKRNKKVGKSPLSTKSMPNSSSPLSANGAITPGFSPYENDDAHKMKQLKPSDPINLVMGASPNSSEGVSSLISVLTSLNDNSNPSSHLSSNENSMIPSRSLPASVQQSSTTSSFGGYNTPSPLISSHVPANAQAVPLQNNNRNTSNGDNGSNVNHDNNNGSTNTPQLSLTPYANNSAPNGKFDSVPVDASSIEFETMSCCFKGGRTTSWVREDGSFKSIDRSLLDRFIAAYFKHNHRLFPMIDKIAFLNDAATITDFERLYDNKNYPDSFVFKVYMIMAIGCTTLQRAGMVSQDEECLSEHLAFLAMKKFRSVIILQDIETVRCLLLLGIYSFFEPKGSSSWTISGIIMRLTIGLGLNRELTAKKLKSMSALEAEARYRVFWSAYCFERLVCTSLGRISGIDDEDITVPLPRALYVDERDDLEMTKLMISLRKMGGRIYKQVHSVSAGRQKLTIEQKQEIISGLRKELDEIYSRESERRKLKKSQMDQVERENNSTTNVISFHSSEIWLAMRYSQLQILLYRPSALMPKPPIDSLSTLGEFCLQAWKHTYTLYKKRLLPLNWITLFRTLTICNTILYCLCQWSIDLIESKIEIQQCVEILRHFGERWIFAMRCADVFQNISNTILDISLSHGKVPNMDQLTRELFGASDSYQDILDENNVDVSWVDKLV
Method in brief: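 GST-tagged yeast TFs (full-length or DNA-binding domain) were made by PURExpress in vitro transcription/translation and applied at about 100-200 nM to universal all-10-mer Agilent arrays. The arrays were made double-stranded by primer extension, on fresh or once-stripped slides. Bound protein was detected with fluorescent anti-GST, and scans were normalised with masliner. Each ungapped eight-base word, pooled with its reverse complement, received an E-score (modified Wilcoxon-Mann-Whitney statistic) from the Universal PBM Analysis Suite.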

| Sequence | PBM E-score |
| --- | --- |
| AAGATTGG | -0.201 |
| GGCACGAC | -0.0677 |
| AAATTCTG | -0.107 |
| ACCTAGTG | -0.0726 |
| CAACTTCC | -0.0598 |
| AGAGACTA | -0.0204 |
| CACAGCTC | -0.255 |
| ACTGTGAA | -0.0488 |
| GGTGAGAA | 0.127 |
| CAAGGCGA | -0.157 |
| CACTTGCA | -0.14 |
| ACTCGATC | -0.191 |
| CAGTTACG | -0.0602 |
| TCCAGAAA | -0.0169 |
| ATGCTATC | -0.00518 |
| CTAAGTGA | -0.0682 |
| CTCCGGAG | 0.283 |
| GACTTAGA | -0.211 |
| ACATTGAG | 0.0192 |
| TCCGCGGA | 0.144 |
| TTACATAA | 0.0508 |
| CACCCTTC | -0.22 |
| CAACAAAA | -0.122 |
| AGGAAACG | -0.031 |
| TGAGGCAA | -0.322 |

| Sequence | PBM E-score |
| --- | --- |
| CCCGTAAC | 0.208 |
| ACTCTATG | -0.0372 |
| ACGGTCAG | -0.0787 |
| AGGGTCCA | -0.021 |
| AGTCAAAT | -0.164 |
| ATGATAGG | -0.25 |
| GCATACGC | -0.0349 |
| AGCAGTAA | -0.155 |
| GTGGTTTA | 0.143 |
| CAGAGCGA | -0.00058 |
| AGGGGCGA | -0.0945 |
| TTATTCAA | 0.0979 |
| AACCCTCG | -0.271 |
| CCTCGCAA | -0.0385 |
| ACATCTAA | -0.18 |
| GCGCGCCA | 0.174 |
| ATCTGAGG | -0.107 |
| CGACCCAA | -0.125 |
| GAATTGTC | -0.118 |
| CTCCCGCC | 0.0573 |
| ACGTTCTC | -0.279 |
| AGCAGAGG | -0.278 |
| CGCTTCAC | 0.0234 |
| GGGGAACA | 0.0315 |
| ATACCCGA | 0.273 |

| Sequence | PBM E-score |
| --- | --- |
| ACTCTTGC | -0.237 |
| AGAGTAGG | -0.0274 |
| ATCAAATA | -0.0163 |
| ATGTTTTC | -0.0766 |
| GATGTGCA | -0.236 |
| CAAGAACG | -0.0853 |
| ATGGTTGC | -0.259 |
| ATGACGTA | -0.183 |
| ATCCTAAT | -0.0455 |
| ATCATCTA | -0.0932 |
| ACCCAGCA | 0.0438 |
| CATTGGCG | -0.0195 |
| ATAGTGAC | -0.131 |
| CACCCAGA | -0.183 |
| CCTTGTTC | -0.176 |
| GCAGCGAA | -0.0521 |
| AGGAACAG | -0.305 |
| CTACAGAC | -0.0433 |
| ATTCTAGG | -0.169 |
| CACTATAC | -0.101 |
| GGAGACAC | 0.0843 |
| AATGTGTA | -0.183 |
| AGGGACGG | 0.253 |
| CGCCGCGC | 0.368 |
| GAGTGAAC | -0.0964 |

| Sequence | PBM E-score |
| --- | --- |
| TATCGCAA | -0.173 |
| CAGAAGCC | 0.0903 |
| ACTTAACA | -0.168 |
| ACAAAGCA | -0.0624 |
| AGCTCACG | -0.232 |
| CGCTACAC | -0.0399 |
| ATACCTGC | -0.0872 |
| CGAGACAA | -0.264 |
| CCATTCAA | -0.227 |
| AGCTAATG | -0.274 |
| ATCGTAAT | -0.0644 |
| CTTTATCA | -0.127 |
| GCAGCGCA | -0.0467 |
| CACAACTC | -0.023 |
| AAACGCCC | 0.22 |
| ATGCATCA | -0.223 |
| GCATCTCA | -0.205 |
| CAAACAAG | -0.0162 |
| ATACAAGG | -0.0423 |
| CAAAGGGG | -0.134 |
| AGATTCAG | -0.128 |
| CCTAGGCC | -0.0439 |
| ACTCTCCT | -0.329 |
| AGCCAGCG | -0.141 |
| CGGAGTGA | 0.391 |

| Sequence | PBM E-score |
| --- | --- |
| ACTCTCTA | -0.205 |
| AATGTCAG | -0.128 |
| CAAAGATC | -0.0177 |
| GCCGACGC | 0.316 |
| ACCGGCAA | 0.241 |
| GACGACAC | 0.145 |
| CAGATGAA | -0.316 |
| AACAGCCG | 0.105 |
| ACAGCATA | -0.0871 |
| AGTTTACC | 0.0921 |
| ATCGAAAA | -0.0502 |
| CAGAAACG | 0.106 |
| GCGTCACC | -0.0626 |
| AACCTTCC | -0.135 |
| CTGAAATA | -0.0506 |
| TAATTACA | -0.0745 |
| AAAGTTTA | 0.072 |
| GATGAAAC | -0.00312 |
| CGGGCGCA | 0.231 |
| GGTTTACA | 0.0237 |
| AAGGCCTG | -0.0882 |
| AGCGAATG | -0.223 |
| ACCATACG | -0.0751 |
| AGCGGGGC | 0.356 |
| ATTAGCTG | -0.119 |

| Sequence | PBM E-score |
| --- | --- |
| AAACATGC | -0.228 |
| AGTAACGC | -0.00333 |
| CCATAAGA | -0.0498 |
| GAACTAGC | 0.0562 |
| CTCATGAG | -0.34 |
| GCTTCAGA | -0.182 |
| ATCCAAAA | -0.0416 |
| CTTAAAAC | 0.115 |
| CATTAAAG | -0.133 |
| CGCTAGAC | 0.0457 |
| CGCCGGCG | 0.428 |
| ACAACACC | 0.197 |
| AATCGGGT | 0.132 |
| CAGTCGTA | -0.0825 |
| GAAGTACC | 0.198 |
| GTCTCGCA | -0.146 |
| GAAATAGA | 0.0305 |
| GGCCCCCC | -0.0669 |
| AAAGTACC | 0.195 |
| TATAGAAA | -0.0297 |
| CCTCCGCG | 0.157 |
| AGACCGTC | 0.252 |
| ACATAGGC | -0.086 |
| ATAGCCAC | -0.171 |
| CTTCTACC | -0.133 |

| Sequence | PBM E-score |
| --- | --- |
| CCGATGTA | 0.242 |
| CTGCGGGC | 0.249 |
| CTGCGGCC | 0.218 |
| GTTCGCAA | -0.133 |
| ACTATAGT | -0.0208 |
| AATATCAG | -0.00081 |
| CTTGCCCA | -0.075 |
| GACGGAAA | 0.268 |
| ACACGGGG | 0.272 |
| AGGAAACC | -0.0573 |
| AGTCAGTG | -0.308 |
| AGCAGCCT | -0.286 |
| AAATTTCG | 0.0172 |
| GGGTAAAA | 0.0855 |
| CCGTAAAA | 0.171 |
| GCATTCGA | -0.145 |
| CCCCCGCG | 0.325 |
| CAGCAAAA | -0.154 |
| TCGTCTCA | -0.0724 |
| CTCTTACC | 0.063 |
| CACCAACG | 0.0702 |
| AAAGCTAC | -0.102 |

Reference: the supplement of paper PMC3334620
